From the antibiotic and cytotoxicity screens of Wong et al. (2023)
This is one part of the list.

System: S. aureus RN4220
Assay: growth inhibition call (relative growth <= 0.2)
Conditions: 50 µM

Growth inhibition call, inactive:
C[C@@H]1CN([C@H](C)CO)C(=O)Cc2cc(NC(=O)CCN3CCOCC3)ccc2O[C@H]1CN(C)Cc1ccc(C(=O)Nc2ccccc2N)cc1
C[C@H](CO)N1C[C@H](C)[C@@H](CN(C)S(C)(=O)=O)OCCCC[C@H](C)Oc2ccc(NS(=O)(=O)c3cn(C)cn3)cc2C1=O
C[C@@H]1CCCCO[C@H](CN(C)S(=O)(=O)c2ccc(Cl)cc2)[C@H](C)CN([C@H](C)CO)C(=O)c2cc(NC(=O)Cc3ccccc3)ccc2O1
N=C(N)NCCC[C@@H](NC(=O)[C@@H]1CCCN1C(=O)[C@H]1CSSCCC(=O)N[C@@H](Cc2ccc(O)cc2)C(=O)N[C@@H](Cc2ccccc2)C(=O)N[C@@H](CCC(N)=O)C(=O)N[C@@H](CC(N)=O)C(=O)N1)C(=O)NCC(N)=O
CNC[C@@H]1OCCCC[C@@H](C)Oc2ccc(NC(=O)Nc3cccc4ccccc34)cc2C(=O)N([C@H](C)CO)C[C@@H]1C
O=C(C[C@@H]1C=C[C@H](NC(=O)Cc2ccccn2)[C@@H](CO)O1)NCCc1ccncc1
C[C@H]1CN([C@@H](C)CO)C(=O)c2cc(C#CCN(C)C)cnc2O[C@H]1CN(C)Cc1ccc2c(c1)OCO2
O=C(C[C@H]1C[C@@H]2c3cc(NS(=O)(=O)c4ccc(F)cc4)ccc3O[C@@H]2[C@@H](CO)O1)NCc1ccccn1
CCNC(=O)C[C@H]1C=C[C@H](NC(=O)C2CC2)[C@H](CO)O1
C[C@H](CO)N1C[C@H](C)[C@H](CN(C)C(=O)Nc2ccc(C(F)(F)F)cc2)Oc2c(NC(=O)Nc3ccccc3)cccc2C1=O
